About 65 (0.1%) of roughly 45,000 compounds were called active. The call rests on the fitted dose curve; in most records, active means well fitted activation curve with a large enough effect; inconclusive means small, poorly fitted or top-dose-only effect; inactive means no such curve, though single readings can be large or run the other way. The list shows a part of the results.

UniProt P54803, sequence (P54803 whole entry, looked up): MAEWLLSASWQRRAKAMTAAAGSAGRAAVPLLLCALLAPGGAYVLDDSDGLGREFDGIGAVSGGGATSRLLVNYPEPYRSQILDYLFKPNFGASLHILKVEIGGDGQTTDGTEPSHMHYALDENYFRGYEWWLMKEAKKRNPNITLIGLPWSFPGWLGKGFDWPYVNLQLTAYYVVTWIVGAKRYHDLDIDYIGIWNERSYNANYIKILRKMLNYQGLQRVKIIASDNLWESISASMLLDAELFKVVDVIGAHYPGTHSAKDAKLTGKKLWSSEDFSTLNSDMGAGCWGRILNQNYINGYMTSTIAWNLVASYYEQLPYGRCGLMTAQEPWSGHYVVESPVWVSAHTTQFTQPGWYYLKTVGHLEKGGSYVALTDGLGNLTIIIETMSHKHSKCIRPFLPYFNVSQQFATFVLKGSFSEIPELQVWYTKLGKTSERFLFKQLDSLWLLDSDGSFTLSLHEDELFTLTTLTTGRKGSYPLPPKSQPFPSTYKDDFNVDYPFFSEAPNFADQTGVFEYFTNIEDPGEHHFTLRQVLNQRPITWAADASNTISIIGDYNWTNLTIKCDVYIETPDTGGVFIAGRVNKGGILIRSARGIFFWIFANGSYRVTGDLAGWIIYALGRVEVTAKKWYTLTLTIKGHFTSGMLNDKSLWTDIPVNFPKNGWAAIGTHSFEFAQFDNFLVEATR

The assay concerns the target Galactocerebrosidase (Homo sapiens) (UniProt P54803). Nature of the assay: A Novel Cell-Based Assay to Identify Small Molecules for B -Galactocerebrosidase. Further: 0% is about no effect; nearly all actives have a fitted effect of over 65% in size. The note with it: 145M-Twi-hGALC-G270D cells (Twitcher mouse brain line with human GALC G270D), HMU-beta-Gal fluorescence, 48 h; series mostly up to 57.5 µM; activation: at the top concentration. The essentials:
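Fluorescence readout: HMU-β-gal cleavage by mutant GALC (0.1 mM final, citrate/phosphate pH 5.2 with 1 mg/mL taurocholate), stopped with carbonate/bicarbonate plus Triton X-100. Cells: murine Twitcher 145M-Twi expressing human G270D GALC; qHTS for activators.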
As for `CC1CCCCN1CCCNC(=O)c1ccc2c(c1)sc1nc(-c3ccc(F)cc3)cn12` (stereo unspecified), the “activation” value is inactive: -12.7%.
On to `CCc1ccc(Oc2c(C(F)(F)F)oc3c(CN4CCN(CC)CC4)c(O)ccc3c2=O)cc1`, for which the “activation” value is inactive: -12.2%.
Take `O=C(Nc1nc2ccc(S(=O)(=O)N3CCCC3)cc2s1)c1ccc(F)cc1`: the “activation” value is inactive: -8.64%.
Take `Cc1ccc2cc3cc(C(=O)N4CCN(c5ccccc5)CC4)oc3nc2c1`: the “activation” value is inactive: -6.99%.
Next, `Cc1cc(C)cc(NC(=O)C(=O)NCCCN2CCOCC2)c1`: inactive: -14.7%.
On to `O=c1c(N2CCN(c3cccc(Cl)c3)CC2)csc2ccccc12`, for which the “activation” value is inactive: -15.8%.
On to `CCc1nn(CC(=O)NCc2ccccc2Cl)c(=O)c2cc3ccccc3n12`, for which the “activation” value was inactive: -17.9%.
Regarding `COc1ccc(-c2nc3nc(C)cc(N4CCN(c5cccc(C(F)(F)F)c5)CC4)n3n2)cc1`, the “activation” value is inactive: 0.691%.
Turning to `COCCCNC(=O)c1ccc(Cn2c(=O)c3ccccc3n(CC(=O)Nc3ccc(C)cc3C)c2=O)cc1`, the “activation” value was inactive: 5.44%.
With `CCOC(=O)N1CCc2c(sc3c2c(=O)n(-c2ccc(Cl)cc2)c(=O)n3Cc2cccc(OC)c2)C1`, the “activation” value was inactive: -10%.
For `CCOC(=O)c1noc2ncnc(N3CCN(c4cccc(Cl)c4)CC3)c12`, the “activation” value was inactive: -17.9%.
For `Cc1cccc2c1-c1sc(C(=O)NCc3ccc(Cl)cc3)cc1CO2`, the “activation” value is inactive: -14.5%.
Turning to `Cc1cccc(N2CC(c3nc4ccccc4n3CCC3CCCCC3)CC2=O)c1` (stereo unspecified), the “activation” value was inactive: -36.7%.
In the case of `CCc1ccc(S(=O)(=O)c2nnn3c2nc(Nc2cc(OC)cc(OC)c2)c2cc(Cl)ccc23)cc1`, the “activation” value is inactive: -8.1%.
For `CCN(Cc1ccccc1)C(=O)c1cc2c(=O)oc3ccc(C)cc3c2s1`, the “activation” value is inactive: -15%.
On to `Cc1ccc(-c2nc(S(=O)(=O)c3ccc(C)cc3)c(SCC(=O)Nc3ccc(F)cc3)o2)cc1`, for which the “activation” value was inactive: -2.89%.
For the compound `COc1ccc(CCNC(=O)c2cc3c(s2)-c2c(C)cccc2OC3)c(OC)c1`, the “activation” value was inactive: -7.98%.
In the case of `CCOc1ccc(C(=O)Nc2ccccc2C(=O)OCc2cc(=O)n3nc(C4CC4)sc3n2)cc1`, the “activation” value was inactive: -5.74%.
On to `Cc1cc(C)cc(NC(=O)Cn2nnc(C(=O)NCc3ccccc3Cl)c2N)c1`, for which the “activation” value was inactive: -21.5%.
Next, `COc1ccc(NC(=O)Nc2cccc(OCc3cc(=O)n4cccc(C)c4n3)c2)c(OC)c1`: inactive: -0.946%; `CN1C(C(=O)c2ccccc2)=C(NC(=O)c2ccccc2Br)c2ccccc2S1(=O)=O`: inactive: -9.62%; `COCCn1c(C)cc(O)c(C(c2ccc(Cl)cc2)N2CCN(c3ccccc3)CC2)c1=O` (stereo unspecified): inactive: -8.21%.
`CCCCCSc1nnc2c(n1)OC(CC)Nc1ccc(Br)cc1-2` (stereo unspecified): the “activation” value was inactive: -45.9%.
Consider `COc1cc(C2N=C(N)Nc3nc4ccccc4n32)ccc1OCC(=O)O` (stereo unspecified), for which the “activation” value is inactive: -10.7%.
Take `COc1ccc(-c2cc(C(C)=O)c(C)n2CCC(=O)Nc2ccc(C)cc2Cl)cc1`: the “activation” value was inactive: 2.96%.
Next, `Cc1cc(C)cc(Nc2nc3ccccc3n3cnnc23)c1`: inactive: -6.2%; `CCc1ccc(NC(=O)Cc2csc(COc3cccc(C)c3)n2)cc1`: inactive: 6.25%; `O=c1n(Cc2ccc(Cl)cc2)c2ccccc2c2nc(-c3ccccc3)nn12`: inactive: 8.31%.
The result for `Cc1nc2ccc(S(=O)(=O)NC(C(=O)N3CCN(c4ccc(Cl)cc4)CC3)C(C)C)cc2s1` (stereo unspecified) reads inactive: -10.4%; that for `O=S(=O)(c1ccc2[nH]c3c(c2c1)CCCC3)N1CCN(c2cccc(C(F)(F)F)c2)CC1`, inactive: -0.528%; that for `CCn1c(=O)cc(SCC(=O)NCCc2cccc(C)c2)c2ccccc21`, inactive: -5.22%.
As to `CCC(=O)N1CCc2cc(Br)cc(S(=O)(=O)CCC(=O)N3CCN(c4ccc(OC)cc4)CC3)c21`, the “activation” value was inactive: -29.3%.
For the compound `CCC(C(=O)Nc1cc(OC)ccc1OC)n1c(=O)c(C(F)(F)F)nc2ccccc21` (stereo unspecified), the “activation” value was inactive: -15.3%.
On to `CCOc1ccc2oc(=O)cc(CN3CCN(Cc4ccc(F)cc4)CC3)c2c1`, for which the “activation” value is inactive: -1.18%.
Regarding `O=C(CCCn1c(=O)c2ccccc2n(CC(=O)Nc2cccc(Cl)c2)c1=O)NCc1ccc2c(c1)OCO2`, the “activation” value is inactive: -7.78%.
The result for `COc1ccc(C(=O)NCC(c2ccc(N(C)C)cc2)N2CCCC2)cc1` (stereo unspecified) reads inactive: -6.26%; that for `Cc1cc(C)cc(-n2ccnc2SCC(=O)Nc2ccc(C)cc2C)c1`, inactive: -26.6%.
Regarding `CC(=O)c1ccc(N2CCN(c3nc4c(S(=O)(=O)c5ccc(C)c(C)c5)nnn4c4ccc(Cl)cc34)CC2)cc1`, the “activation” value was inactive: -13.5%.
Turning to `CCC(=O)Nc1ccccc1-c1nc2ccccc2n(C(C)C(=O)Nc2cccc(Cl)c2C)c1=O` (stereo unspecified), the “activation” value is inactive: -13.6%.
`COc1cc(NC(=O)CNC(=O)Cn2ccc3ccccc3c2=O)cc(OC)c1OC`: the “activation” value is inactive: 6.08%.
The result for `CC(C)c1ccc(Nc2ncnc3c2nc2n3CCCC2)cc1` reads inactive: -16.3%; that for `CC(=O)[C@H]1CC[C@H]2[C@@H]3CC=C4C[C@@H](O)CC[C@]4(C)[C@H]3CC[C@]12C`, inactive: -11%.
The result for `O=C(CSc1nc2c([nH]c3ccccc32)c(=O)n1-c1ccc(Cl)cc1)NC1CCCCC1` reads inactive: 10.6%; that for `CCN(CC)C(=O)CN1C(=O)COc2ccc(S(=O)(=O)N3CCOCC3)cc21`, inactive: -11.4%; that for `CCCCNC(=O)Nc1ccc2c(c1)N(C)C(=O)c1ccccc1S2`, inactive: 11.5%.
For the compound `CCc1ccc(NC(=O)N2CCN(Cc3nc4ccc(C)cc4o3)CC2)cc1`, the “activation” value is inactive: -12.2%.

These data come from PubChem BioAssay AID1159614 (National Center for Advancing Translational Sciences (NCATS), 2016).
